In the supplement of paper PMC5919970:
Where a name gives a salt, the structure may show the parent alone. Whole data set: some 2,000 compounds, median “fractional viability relative to vehicle” near 0.92, cut for the lowest 2% near 0.11. Some of the results follow.

Test system: TYKNU
Experiment: fractional viability relative to vehicle; TYKNU is a high-grade serous ovarian cancer line; higher = less growth inhibition
Conditions: 72 h, genotype: OPA1 knockout (sgOPA1 #2)
Method in brief: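 Drug treatment lasted 72 h, with cells grown at 37 °C in 5% CO2 in RPMI 1640 supplemented with 10% FBS. Beforehand, TYKNU control cells or their lentiCRISPRv2 knockout derivatives had been seeded at 500 cells per well into drug-stamped 384-well plates carrying a ~2100-compound library at 2 or 10 μM, in duplicate. Viability came from Cell Titer Glo luminescence, with averaged duplicate treatment wells normalised to duplicate control wells in the same plate position.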

Cc1cc(-n2c(=O)[nH]c(=O)n(C)c2=O)ccc1Oc1ccc(SC(F)(F)F)cc1 [Toltrazuril]
fractional viability (2uM): 0.929 | fractional viability (10uM): 0.817

Cc1ccccc1N1C(=O)c2cc(S(N)(=O)=O)c(Cl)cc2NC1C (stereo unspecified) [Metolazone]
fractional viability (2uM): 1.16 | fractional viability (10uM): 0.992

[I-].[K+] [Potassium Iodide]
fractional viability (2uM): 1.07 | fractional viability (10uM): 0.971

C/C(=N\NC(=O)c1cccc(S(=O)(=O)N2CCOCC2)c1)c1cc(Cl)ccc1O
fractional viability (2uM): 0.715 | fractional viability (10uM): 0.527

O=C(NS(=O)(=O)c1ccc(Br)s1)c1ccc(Cl)cc1Cl [Tasisulam]
fractional viability (2uM): 1.08 | fractional viability (10uM): 0.831

COc1ccc(CNC(=O)Nc2ncc([N+](=O)[O-])s2)cc1
fractional viability (2uM): 1.38 | fractional viability (10uM): 0.704

Cn1c2ccccc2c2c3c(c4c5ccccc5n(CCC#N)c4c21)CNC3=O
fractional viability (2uM): 0.875 | fractional viability (10uM): 0.695

OCCOCCN1CCN(C(c2ccccc2)c2ccc(Cl)cc2)CC1 (stereo unspecified) [Hydroxyzine 2HCl]
fractional viability (2uM): 0.997 | fractional viability (10uM): 0.986

NC(=S)N/N=C/c1ncccc1N [Triapine]
fractional viability (2uM): 0.539 | fractional viability (10uM): 0.477

Nc1cccc2c1CN(C1CCC(=O)NC1=O)C2=O (stereo unspecified) [Lenalidomide (CC-5013)]
fractional viability (2uM): 1.14 | fractional viability (10uM): 1.02

COc1nc(-c2ccc3c(c2)OCO3)n(-c2ccc(NC(=O)CSc3ccccc3)cc2)n1 [SecinH3]
fractional viability (2uM): 0.867 | fractional viability (10uM): 0.975

CCS(=O)(=O)Nc1ccc2c(c1)/C(=C(/Nc1ccc(CN3CCCCC3)cc1)c1ccccc1)C(=O)N2 [Hesperadin]
fractional viability (2uM): 0.544 | fractional viability (10uM): 0.113

O=C(Nc1ccc(-c2ccnc(Nc3ccc(N4CCOCC4)cc3)n2)cc1)C1CCCN1 (stereo unspecified)
fractional viability (2uM): 0.972 | fractional viability (10uM): 1.07

COc1ccc2[nH]c([S+]([O-])Cc3ncc(C)c(OC)c3C)nc2c1 (stereo unspecified) [Omeprazole]
fractional viability (2uM): 1.16 | fractional viability (10uM): 1.32

CCOC(=O)[C@H](CCc1ccccc1)N[C@@H](C)C(=O)N1CCC[C@H]1C(=O)O [Enalapril Maleate]
fractional viability (2uM): 0.919 | fractional viability (10uM): 1.05

CNC(=O)[C@H](Cc1ccccc1)NC(=O)[C@H](CC(C)C)[C@H](CSc1cccs1)C(=O)NO [Batimastat (BB-94)]
fractional viability (2uM): 0.586 | fractional viability (10uM): 0.568

C[C@]12CC[C@@H]3c4ccc(O)cc4CC[C@H]3[C@@H]1C[C@@H](O)[C@@H]2O [Estriol]
fractional viability (2uM): 1.06 | fractional viability (10uM): 0.814

Cc1nc(N)sc1-c1ccnc(Nc2ccc(N3CCOCC3)cc2)n1
fractional viability (2uM): 1.08 | fractional viability (10uM): 0.715

CCC[C@H](NC(=O)[C@@H]1[C@H]2CCC[C@H]2CN1C(=O)[C@@H](NC(=O)[C@@H](NC(=O)c1cnccn1)C1CCCCC1)C(C)(C)C)C(=O)C(=O)NC1CC1 [Telaprevir (VX-950)]
fractional viability (2uM): 1.1 | fractional viability (10uM): 0.577

Cc1noc(NS(=O)(=O)c2ccc(N)cc2)c1C [Sulfisoxazole]
fractional viability (2uM): 1.14 | fractional viability (10uM): 1.06

CCc1cccc2c3c([nH]c12)C(CC)(CC(=O)O)OCC3 (stereo unspecified) [Etodolac]
fractional viability (2uM): 1.09 | fractional viability (10uM): 0.888

C[C@@H]1CN(CC(=O)Nc2ccc3c(c2)Cc2cccc(-c4cc(=O)cc(N5CCOCC5)o4)c2S3)C[C@H](C)O1
fractional viability (2uM): 1.12 | fractional viability (10uM): 0.748

O=C(O)c1ccccc1C(=O)Nc1ccc(-c2ccccc2)cc1 [Kartogenin]
fractional viability (2uM): 0.838 | fractional viability (10uM): 0.747

CC(=O)N1CCN(CCOc2ccc(C3CCN(C4=Nn5c(nnc5C(F)(F)F)CC4)CC3)cc2)CC1
fractional viability (2uM): 0.883 | fractional viability (10uM): 0.826

C=CC(=O)N1CCC[C@@H](n2nc(-c3ccc(Oc4ccccc4)cc3)c3c(N)ncnc32)C1
fractional viability (2uM): 0.903 | fractional viability (10uM): 0.918

C=CC(=O)Nc1ccc2ncnc(Nc3ccc(OCc4cccc(F)c4)c(Cl)c3)c2c1
fractional viability (2uM): 0.742 | fractional viability (10uM): 0.0667

CC1=C(CC(=O)O)c2cc(F)ccc2/C1=C\c1ccc([S+](C)[O-])cc1 (stereo unspecified) [Sulindac]
fractional viability (2uM): 0.998 | fractional viability (10uM): 0.875

Cn1c([N+](=O)[O-])cnc1COC(N)=O [Ronidazole]
fractional viability (2uM): 1.77 | fractional viability (10uM): 1.32

CCN(c1cc(-c2ccc(CN3CCOCC3)cc2)cc(C(=O)NCc2c(C)cc(C)[nH]c2=O)c1C)C1CCOCC1
fractional viability (2uM): 0.936 | fractional viability (10uM): 0.888

CN(C)[C@@H]1C(O)=C(C(N)=O)C(=O)[C@@]2(O)C(O)=C3C(=O)c4c(O)ccc(Cl)c4[C@@H](O)[C@H]3C[C@@H]12 [Demeclocycline HCl]
fractional viability (2uM): 1.55 | fractional viability (10uM): 1.13

O=C(O)CC1CC(c2ccccc2)=NO1 (stereo unspecified)
fractional viability (2uM): 0.825 | fractional viability (10uM): 0.726

CC[C@@H]1/C=C(\C)C[C@H](C)C[C@H](OC)[C@H]2O[C@@](O)(C(=O)C(=O)N3CCCC[C@H]3C(=O)O[C@H](/C(C)=C/[C@@H]3CC[C@H](Cl)[C@H](OC)C3)[C@H](C)[C@@H](O)CC1=O)[C@H](C)C[C@@H]2OC [Pimecrolimus]
fractional viability (2uM): 0.794 | fractional viability (10uM): 0.719

OC[C@H]1O[C@@H](O[C@@H]2[C@@H](CO)OC(O)(CO)[C@H]2O)[C@H](O)[C@@H](O)[C@H]1O (mixture of isomers) [Lactulose]
fractional viability (2uM): 1.08 | fractional viability (10uM): 0.934

Cc1cc(Nc2nc(N[C@@H](C)c3ncc(F)cn3)ncc2Cl)[nH]n1
fractional viability (2uM): 0.91 | fractional viability (10uM): 0.875

COC[C@H](NC(=O)c1cnc(C)s1)C(=O)N[C@@H](COC)C(=O)N[C@@H](Cc1ccccc1)C(=O)[C@@]1(C)CO1 [Oprozomib (ONX 0912)]
fractional viability (2uM): 0.153 | fractional viability (10uM): 0.136

CCCCC(=O)N(Cc1ccc(-c2ccccc2-c2nnn[nH]2)cc1)[C@H](C(=O)O)C(C)C.CCOC(=O)[C@H](C)C[C@@H](Cc1ccc(-c2ccccc2)cc1)NC(=O)CCC(=O)O
fractional viability (2uM): 0.858 | fractional viability (10uM): 0.825

Cc1ccc2c(Cl)cc(Cl)c(O)c2n1 [Chlorquinaldol]
fractional viability (2uM): 0.802 | fractional viability (10uM): 0.53

N=C(N)N/N=C/c1c(Cl)cccc1Cl [Guanabenz Acetate]
fractional viability (2uM): 0.969 | fractional viability (10uM): 0.8

NCc1c[nH]c(=S)n1[C@@H]1CCc2c(F)cc(F)cc2C1 [(R)-Nepicastat HCl]
fractional viability (2uM): 0.932 | fractional viability (10uM): 0.924

C[C@H](Oc1cc(-c2cnn(C3CCNCC3)c2)cnc1N)c1c(Cl)ccc(F)c1Cl [(S)-crizotinib]
fractional viability (2uM): 0.839 | fractional viability (10uM): 0.197

Brc1c(NC2=NCCN2)ccc2nccnc12 [Brimonidine Tartrate]
fractional viability (2uM): 0.995 | fractional viability (10uM): 1.13

CN(C)CCOC(=O)COc1ccc(Cl)cc1 [Meclofenoxate (Centrophenoxine) HCl]
fractional viability (2uM): 0.946 | fractional viability (10uM): 0.981

Fc1cc(-c2cccc3ncc(-c4cnn(C5CCNCC5)c4)nc23)cc(F)c1CN1CCOCC1
fractional viability (2uM): 0.858 | fractional viability (10uM): 0.133
